Data published in US8110551B2 (priority 2008, dated 2012).

Target: T1, PTEN (Homo sapiens, UniProt P60484)
T1 construct: gift: Gregory Taylor
Assay type: biochemical
Settings: 0.1 μM PTEN

## [O]=[Mo](=[O])([O-])[O-] [molybdate]
  inhibition of PTEN (in words): failed to inhibit
